{"source": "PubChem BioAssay AID588342", "about": "(National Center for Advancing Translational Sciences (NCATS), 2011)", "note": "Among all 360,000 compounds or so, about 25,000 (6.9%) were called active. Inconclusive results, whose numbers are uncertain, are shown with a selection of clear calls. The call rests on the fitted dose curve; in most records, active means well fitted inhibition curve with a large enough effect; inconclusive means small, poorly fitted or top-dose-only effect; inactive means flat fitted curve, though single readings scatter. Potencies beside an inconclusive call are fits to weak or partial responses and may not hold up. Potency means the concentration at half of the fitted maximal effect; tags describe the fitted curve by direction and shape.", "data": [{"target": "Luciferin 4-monooxygenase (Photinus pyralis) (UniProt P08659)", "sequence (P08659 whole entry, looked up)": "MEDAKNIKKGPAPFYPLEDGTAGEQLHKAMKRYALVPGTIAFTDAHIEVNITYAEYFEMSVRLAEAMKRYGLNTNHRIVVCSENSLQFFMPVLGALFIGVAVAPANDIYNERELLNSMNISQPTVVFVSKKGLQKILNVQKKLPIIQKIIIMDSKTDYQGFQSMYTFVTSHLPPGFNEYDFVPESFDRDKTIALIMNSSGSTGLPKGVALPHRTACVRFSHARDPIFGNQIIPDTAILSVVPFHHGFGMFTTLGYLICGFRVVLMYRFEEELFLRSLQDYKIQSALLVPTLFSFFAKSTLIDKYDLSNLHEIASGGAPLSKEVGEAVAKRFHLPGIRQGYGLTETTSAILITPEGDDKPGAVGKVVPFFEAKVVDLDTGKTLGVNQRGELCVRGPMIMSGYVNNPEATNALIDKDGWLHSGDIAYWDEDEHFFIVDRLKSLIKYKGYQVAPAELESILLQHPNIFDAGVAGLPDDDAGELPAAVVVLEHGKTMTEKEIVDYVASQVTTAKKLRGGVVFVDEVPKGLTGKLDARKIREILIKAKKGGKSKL", "assay": "qHTS profiling assay for firefly luciferase inhibitor/activator using purifed enzyme and Km concentrations of substrates (counterscreen for miR-21 project); further: nearly all actives have a fitted effect of over 55% in size;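 on activity change, negative = inhibition: plate controls were vehicle for no effect and reference inhibitor for full effect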", "details": "purified FLuc, luminescence inhibition; series mostly up to 57.5 µM; activity change, negative = inhibition: at the top concentration", "procedure,_shortened": "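Biochemical qHTS of compounds, final roughly 60 µM downward over six points, against 10 nM purified firefly luciferase using Km concentrations of substrates (10 uM D-luciferin, 10 uM ATP) in Tris acetate pH 7.5 buffer; luminescence output.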", "values": [{"smiles": "O=C(NC1CCCCCC1)C1CCN(S(=O)(=O)N2CCC3(CC2)OCCO3)CC1", "activity change, negative = inhibition": "inactive: 5.68%"}, {"smiles": "CCOc1ccc(-n2nc3ccc(NC(=O)c4ccc(-c5cccc(Cl)c5)o4)cc3n2)cc1", "Potency": "inconclusive: 15.1 µM [inhibitor, partial curve]"}, {"smiles": "Cc1cccc(C(=O)Nc2ccc(C(=O)N/N=C/c3cccc(C)n3)cc2)c1", "Potency": "inconclusive: 30.1 µM [inhibitor, single point]"}, {"smiles": "COc1cc2c(cc1OC)CN(C(=O)C1CCCN(C(=O)c3ccc(Cl)cc3)C1)CC2", "note": "(configuration not stated)", "activity change, negative = inhibition": "inactive: -0.183%"}, {"smiles": "O=C(Nc1ccc2c(c1)OCO2)NC1CCN(Cc2ccccc2)CC1", "Potency": "active: 16.9 µM"}, {"smiles": "COc1cc(C(=O)N/N=C(\\C)c2ccc(NC(=O)Cc3ccccc3)cc2)ccc1O", "Potency": "inconclusive: 23.9 µM [inhibitor, partial curve, poor fit]"}, {"smiles": "O=c1cc(O)c2sc(Nc3ccc(F)c(Cl)c3)nc2[nH]1", "Potency": "inconclusive: 37.9 µM [inhibitor, partial curve, poor fit]"}, {"smiles": "COc1ccc(C(=O)/C=C/Nc2cc(C)on2)c(OC)c1", "Potency": "inconclusive: 21.3 µM [inhibitor, partial curve]"}, {"smiles": "O=c1c2ccccc2nc(-c2ccco2)n1Cc1ccccc1", "Potency": "active: 13.5 µM"}, {"smiles": "COc1ccccc1CNC(=O)c1cnc2sc(N3CCOCC3)nn2c1=O", "activity change, negative = inhibition": "inactive: -0.661%"}, {"smiles": "O=C(Nc1ccccc1N1CCOCC1)c1cc(-c2ccco2)nc2ccccc12", "Potency": "inconclusive: 19 µM [inhibitor, partial curve]"}, {"smiles": "CCCSc1nnc(NC(=O)Nc2ccccc2)s1", "Potency": "inconclusive: 5.36 µM [inhibitor, full curve]"}, {"smiles": "CNC(=O)c1[nH]cnc1C(=O)Nc1ccc(OC)cc1", "Potency": "inconclusive: 21.3 µM [inhibitor, partial curve, poor fit]"}, {"smiles": "CNc1ncc(C(=O)c2ccc(Br)cc2)s1", "Potency": "active: 12 µM"}, {"smiles": "Nc1nc(CSc2nc3ccccc3[nH]2)cs1", "Potency": "inconclusive: 12 µM [inhibitor, partial curve]"}, {"smiles": "O=C(/C=C/c1ccccc1Cl)N1CCOCC1", "Potency": "inconclusive: 19 µM [inhibitor, partial curve, poor fit]"}, {"smiles": "O=C(CSc1nnc(NC(=O)c2ccccc2F)s1)NCc1ccco1", "Potency": "active: 8.49 µM"}, {"smiles": "CN1/C(=C/c2cc[n+](C)c3ccccc23)C=Cc2ccccc21", "Potency": "active: 13.5 µM"}, {"smiles": "O=c1[nH]nc(CNc2ccc(OC(F)(F)F)cc2)c2ccccc12", "Potency": "inconclusive: 23.9 µM [inhibitor, single point]"}, {"smiles": "CCN(c1ccc(NC(=O)COC(=O)c2cc3ccccc3oc2=O)cc1)C(C)C", "Potency": "inconclusive: 21.3 µM [inhibitor, single point]"}, {"smiles": "Cc1cccc2c1N(CCCOc1ccc(C(C)(C)C)cc1)C(=O)C2=O", "Potency": "inconclusive: 23.9 µM [inhibitor, partial curve, poor fit]"}, {"smiles": "O=C(c1cc(COc2ccc(F)cc2F)on1)N1CCOCC1", "Potency": "active: 16.9 µM"}, {"smiles": "CCCn1c(SCC(=O)N2CCCCC2)nnc1C(C)C", "Potency": "inconclusive: 30.1 µM [inhibitor, single point]"}, {"smiles": "COc1cccc(N(C(=O)CNC(=O)c2ccco2)C(C(=O)NC2CCCC2)c2cccnc2)c1", "note": "(configuration not stated)", "activity change, negative = inhibition": "inactive: -0.642%"}, {"smiles": "CC(=O)c1cccc(NC(=S)NC(=O)c2ccc(C)cc2)c1", "Potency": "active: 10.7 µM"}, {"smiles": "CCn1c(C(=O)N2CCCC(C(=O)NCCCc3ccccc3)C2)cc2sccc21", "note": "(configuration not stated)", "activity change, negative = inhibition": "inactive: -11.3%"}, {"smiles": "Cc1ccc(NC(=S)N(Cc2ccc(Br)cc2)Cc2ccc(C(=O)O)cc2)cc1C", "Potency": "inconclusive: 37.9 µM [inhibitor, partial curve, poor fit]"}, {"smiles": "CCOc1ncccc1C(=O)OCC(=O)c1ccc(Cl)s1", "Potency": "inconclusive: 26.9 µM [inhibitor, partial curve, poor fit]"}, {"smiles": "CCOC(=O)Cc1nnc(Nc2cccc(C)c2)c2ccccc12", "Potency": "inconclusive: 37.9 µM [inhibitor, partial curve, poor fit]"}, {"smiles": "CCOc1ccccc1C(=O)Nc1cc(-c2ccc(C)cc2)no1", "Potency": "inconclusive: 6.01 µM [inhibitor, partial curve]"}, {"smiles": "O=C(/C=C/c1cccc(F)c1)Nc1nccs1", "Potency": "active: 9.53 µM"}, {"smiles": "COc1ccc(CCNC(=O)c2ccc(Cl)c(S(=O)(=O)N3CCCCCC3)c2)cc1", "activity change, negative = inhibition": "inactive: 2.43%"}, {"smiles": "O=C(Oc1coc(CSc2nnc(NC(=O)C3CC3)s2)cc1=O)c1c(F)cccc1F", "Potency": "inconclusive: 37.9 µM [inhibitor, partial curve, poor fit]"}, {"smiles": "Cc1cccc(NC(=O)CSc2nnc(CCCCCNC(=O)OC(C)(C)C)o2)c1C", "Potency": "inconclusive: 23.9 µM [inhibitor, partial curve, poor fit]"}, {"smiles": "Cc1ccc(C23CC4CC(CC(C(=O)NC(C)C(N)=O)(C4)C2)C3)cc1", "note": "(configuration not stated)", "activity change, negative = inhibition": "inactive: -0.306%"}, {"smiles": "Cc1nc(C#N)c(N/N=C/c2c(F)cccc2Cl)o1", "Potency": "active: 23.9 µM"}, {"smiles": "CC(C)c1ccccc1NC(=O)c1ccc2ncsc2c1", "Potency": "inconclusive: 26.9 µM [inhibitor, single point]"}, {"smiles": "O=C(O)COc1cccc(NC(=O)c2ccccc2)c1", "Potency": "inconclusive: 26.9 µM [inhibitor, partial curve, poor fit]"}, {"smiles": "CC(C)Nc1ccc(-c2nc(-c3ccccn3)no2)cc1[N+](=O)[O-]", "Potency": "inconclusive: 15.1 µM [inhibitor, partial curve, poor fit]"}, {"smiles": "CCSc1nnc(NC(=O)NC2CCCCC2)s1", "Potency": "inconclusive: 26.9 µM [inhibitor, single point]"}, {"smiles": "COc1ccc(C(CC(=O)Nc2ccc(C)cc2)NC(=O)C(F)(F)F)cc1", "note": "(configuration not stated)", "activity change, negative = inhibition": "inactive: -2.17%"}, {"smiles": "CC1CCN(c2ccccc2NC(=O)c2cc([N+](=O)[O-])ccc2N2CCOCC2)CC1", "activity change, negative = inhibition": "inactive: -1.63%"}, {"smiles": "CCN(Cc1ccccc1)C(=O)c1cc(-c2ccc(OC)c(OC)c2)nc2ccccc12", "activity change, negative = inhibition": "inactive: -3.51%"}, {"smiles": "CCOC(=O)N=Nc1c2ccccc2c2nc3no[nH]c3nc12", "activity change, negative = inhibition": "inactive: -3.11%"}, {"smiles": "O=C(/C=C/c1ccccc1)Nc1cccnc1Oc1ccccc1F", "Potency": "active: 4.78 µM"}, {"smiles": "CCOC(=O)c1ccc(NC(=O)CSc2nc(SC)ns2)cc1", "Potency": "inconclusive: 23.9 µM [inhibitor, partial curve]"}, {"smiles": "N#Cc1c(/N=C/c2cccs2)sc2c1CCC2", "Potency": "active: 1.51 µM"}]}]}
